Measurements from publication PMC2812487.
No constants are given. Whether binding was seen depends on the method and setting. Some binding calls cover weakened binding; strength is not graded here.

Amino acid sequences for entries named in this document (tags omitted). Residues count along the entry.
UniProt P43626, residues 22-245: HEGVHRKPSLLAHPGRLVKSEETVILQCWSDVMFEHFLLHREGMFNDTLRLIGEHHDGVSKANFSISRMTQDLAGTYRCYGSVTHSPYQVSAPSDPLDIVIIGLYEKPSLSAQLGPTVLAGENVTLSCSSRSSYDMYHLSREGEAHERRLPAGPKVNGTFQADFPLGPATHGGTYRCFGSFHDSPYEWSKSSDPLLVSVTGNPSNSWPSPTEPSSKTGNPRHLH

Legend:
Assay in all cases: flow cytometry on cells; 221 transfectants (50,000 cells) stained with Ig fusion proteins at 50 µg/ml for 2 h on ice (4°C) in FACS medium (1x PBS, 0.5% BSA, 0.05% NaN3); detected with PE-conjugated F(ab′)2 goat anti-human Fc; only the binder purified
[1] = target: HLA-G M76V on 721.221 cells (human) (UniProt P17693)
[2] = target: HLA-G M76V+Q79R on 721.221 cells (human) (UniProt P17693)
[3] = target: HLA-G M76V+Q79R+T80K on 721.221 cells (human) (UniProt P17693)
[4] = target: HLA-G M76V+Q79R+T80N on 721.221 cells (human) (UniProt P17693)
[5] = target: HLA-G Q79R on 721.221 cells (human) (UniProt P17693)
[6] = target: HLA-G T80K on 721.221 cells (human) (UniProt P17693)
[7] = target: HLA-G T80N on 721.221 cells (human) (UniProt P17693)
[8] = target: HLA-G, wild type, on 721.221 cells (human) (UniProt P17693)

For “KIR2DL1-Ig (from UniProt P43626 22-245) (Fc fusion)”, the binding [1] was “no binding (tested: 50 µg/ml)”, the binding [2] was “no binding (tested: 50 µg/ml)” and the binding [3] was “binds”. The binding [4] was “no binding (tested: 50 µg/ml)”, the binding [5] was “no binding (tested: 50 µg/ml)” and the binding [6] was “no binding (tested: 50 µg/ml)”. The binding [7] was “no binding (tested: 50 µg/ml)” and the binding [8] was “no binding (tested: 50 µg/ml)”.
